# Measurements published in PubChem BioAssay AID445 (National Center for Advancing Translational Sciences (NCATS), 2006).
# Among all 110,000 compounds or so, about 40 (0.04%) were called active. The inconclusive results got no clear call from the source; some entries with a clear call stand among them for comparison. The call rests on the fitted dose curve; in most records, active means well fitted curve in the direction sought with a large enough effect in the signal ratio (not every such curve was filed as active); inconclusive means small, poorly fitted or top-dose-only effect, or a change in a side signal; inactive means flat fitted curve, though single readings scatter; the % refers to the signal ratio. Potencies beside an inconclusive call are fits to weak or partial responses and may not hold up.
# Test: IkB Signaling;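 on IkBa stabilization activation: 0% = basal untreated cells and 100% = reference inhibitor full response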
# Details: ABC-DLBCL IkBa-CBG/CBR dual luciferase ratio (green luciferase fused to IkBa over red control in OCI-Ly3 lymphoma cells), 4 h; IkBa stabilization activation: at 57.1 µM (top of the series), scaled: untreated 0%, proteasome inhibitor 100% unless noted
# Source text: NIH Molecular Libraries Screening Centers Network [MLSCN]
# NIH Chemical Genomics Center [NCGC]
# Nuclear factor kappa-B (NF-kappa-B) plays an important role in normal B cell development and survival. Diffuse large B cell lymphoma (DLBCL) is the most commonly observed type of non-Hodgkin's lymphoma. Gene expression analysis has identified an activated B cell-like subtype of DLBCL (ABC-DLBCL) which expresses known NF-kappa-B target genes. […] However, targets upstream of IKK have been largely unexplored and so nodes upstream of IKK in the NF-kappa-B pathway remain untested due to the lack of chemical probes.
# A cell-sensor assay for I-kappa-B-alpha stabilization was developed with NIH investigator Dr. R. Eric Davis in Dr. Louis M. Staudt's laboratory. The assay uses green (CBG68) and red (CBR) emitting beetle luciferases [Chroma-Glo(TM) developed by Promega Corp.] where the green luciferase is fused to I-kappa-B-alpha and the red luciferase is present in its native state. Both luciferase genes are stably present in the OCI-Ly3 human ABC DLBCL cell line, but their expression is under the control of tetracycline-inducible promoters. Following the addition of doxycycline to induce expression of the luciferases, the green luminescence in control cultures rises only slowly because the CBG fusion partner I-kappa-B-alpha is targeted by IKK activity for rapid degradation. In contrast, green luminescence rises rapidly in the presence of proteasome inhibitors or IKK inhibitors. The rise in red luminescence of CBR is not affected by proteasome or IKK inhibitors, and serves as normalization for cell number and nonspecific effects. Compounds were screened as a concentration-titration series that ranged from 57 uM to 0.7 nM.
# NCGC Assay Protocol Summary:
# Cells were seeded in 1536-well plates at 5000 cells/3ul in IMDM medium containing 0.5% FBS, w/o phenol red, L-glutamine, 25 mM HEPES, 3 mg/ml sodium bicarbonate. After centrifugation for 1 min. at 1000 rpm, 23 nl of compounds or DMSO were delivered to each well using a pin tool. Then 1ul 80ng/ml doxycycline was dispensed into white solid 1536-well plates and the plates were incubated at 37C/5% C02 in a cell incubator for 4 hrs. Then 4 ul Chroma-Glo luminescent substrate mix (Promega) was added to each well. The plate was incubated at R.T. for 10-15 min. The plates were measured on a ViewLux plate reader for green luminescence (540/20 nm filter) and red luminescence (618/8 nm filter). The green and red luminescent signals were corrected for red and green luminescence filter overlap using previously determined filter calibration constants (determined using the procedure outlined in the Promega Technical Manual). The %Activity was determined from the ratio of corrected green/red luminescent values. Green luminescent and ratio %Activity was determined by normalizing to the difference in signal between basal cells (0% Activity) and cells incubated with 10 uM of the proteasome inhibitor MG-132 (100% Activity). Red luminescent %Activity was normalized to the difference between red luminesence in basal cells (0%Activity) and zero luminescence (-100% Activity).
# Concentration-response curves were fitted to the signals arising from the green luminescence (I-kappa-B-alpha-luciferase fusion; IkB-luc) and the red luminescence (unfused luciferase; luc) as well as the calculated ratio. The concentration-effect curves were then classified based on curve quality (r2), response magnitude and degree of measured activity. Compounds were then categorized based on their concentration-response curves for all three datasets (Ikb-luc, luc and ratio).
# Keywords: IKK, I-kappa-B, IkB, IkBa, cytotoxicity, luminescence, MLSMR, MLSCN, NIH Roadmap, qHTS, NCGC
# Potency means the concentration at half of the fitted maximal effect.
SMILES,IkBa stabilization activation,Potency
COc1cccc(-n2cc(C(=O)OCc3ccc(Cl)cc3)c3ccccc3c2=O)c1,inactive,
CCOc1ccc(-n2c(=O)c3c(C)c(C)sc3n(CC(=O)N3CCC(C)CC3)c2=O)cc1,inconclusive: 4.8% [signal inhibitor],
Cc1cccc(CNC(=O)c2ccc(C)c(-n3c(C)nc4cccnc43)c2)c1,inconclusive: 0.699% [signal inhibitor],
COc1cc(NS(=O)(=O)c2ccc(C)cc2)c2ncccc2c1,,active: 1.26 µM
CCOC(=O)c1c(C)oc2nc(C)nc(NCc3cccc(Cl)c3)c12,inconclusive: 7.07% [signal inhibitor],
O=C(c1cccc(Cl)c1)n1nc(-c2cccnc2)nc1NCc1ccccc1,inconclusive: 2.35% [signal inhibitor],
Cc1ccc2c(c1)N(CC(=O)c1cccc(Cl)c1)C(=O)C(C)O2 (stereo not given),inactive,
O=c1[nH]c(CN2CCc3ccccc32)nc2scc(-c3cccs3)c12,inconclusive: 7.5% [signal inhibitor],
Cc1cc(C(=O)COC(=O)c2n[nH]c3ccccc23)c(C)n1C,,"inconclusive: 7.94 µM [signal inhibitor, partial curve]"
COc1cc(OC)cc(C(=O)Nc2nnc3n2CCS3)c1,inconclusive: -3.9% [signal inhibitor],
O=C(CN1CCC(n2nnc3cc(C(F)(F)F)ccc32)CC1)NCc1cccs1,inconclusive: 5.74% [signal inhibitor],
CCCc1cc(=O)[nH]c(SCc2cc(C(=O)OC)c(C)o2)n1,inconclusive: 1.01% [signal inhibitor],
CCc1ccc(NC(=O)c2c(C(=O)Nc3ccccc3)sc3nc(C)cc(=O)n23)cc1,inconclusive: 6.73% [signal inhibitor],
COc1cccc(NS(=O)(=O)c2cc3c4c(c2)C(C)C(=O)N4CCC3)c1 (stereo not given),inactive,
COc1cc(-c2noc(C3CC(=O)N(c4cc(C)ccc4C)C3)n2)cc(OC)c1OC (stereo not given),inconclusive: 7.29% [signal inhibitor],
Cc1ccsc1CCN1C(=O)N(c2ccc(F)cc2)C(=O)C1CC(=O)Nc1ccccc1 (stereo not given),inconclusive: 2.21% [signal inhibitor],
CCOc1ccc(NC(=O)Cn2cnc3c(oc4ccccc43)c2=O)cc1,inconclusive: -0.976% [signal inhibitor],
COc1cccc(-c2cc(C(=O)N3CCN(c4ccc(F)cc4)CC3)no2)c1,inactive,
COc1ccc(-c2nnc(SCC(=O)Nc3cccc(Cl)c3C)nc2-c2ccc(OC)cc2)cc1,inconclusive: 0.9% [signal inhibitor],
COc1cc(-c2nnc3sc(-c4ccco4)nn23)cc(OC)c1OC,inactive,
Cc1ccc(CNC(=O)c2ccc3c(c2)nc2n3CCCC2)cc1,inconclusive: 1.14% [signal inhibitor],
Cc1ccc(-c2noc(CCC(=O)N(C)c3ccccc3C)n2)cc1,inconclusive: 2.97% [signal inhibitor],
C1CCC(N=C(NC23CC4CC(CC(C4)C2)C3)N2CCOCC2)CC1,inactive,

SMILES,IkBa stabilization activation,Potency
CCn1cc(C(=O)NCc2ccccc2OC)c(=O)c2cc(S(=O)(=O)N3CCCCCC3)ccc21,inconclusive: 2.51% [signal inhibitor],
CC(=O)Nc1ccc(C(=O)c2ccccc2)cc1,inconclusive: 17.6% [signal inhibitor],
Cc1ccnc(SCC(=O)Nc2oc(-c3ccccc3)c(-c3ccccc3)c2C#N)n1,inactive,
COCC(C)n1c(C)cc(C(=O)COC(=O)c2oc3ccccc3c2C)c1C (stereo not given),inconclusive: 10.7% [signal inhibitor],
COc1ccc(CCNC(=O)c2oc3ccc(S(=O)(=O)N4CCOCC4)cc3c2C)cc1OC,inconclusive: -0.095% [signal inhibitor],
COc1ccc2nc(NC(=O)CSc3nnnn3C3CCCCC3)sc2c1,inconclusive: 4.6% [signal inhibitor],
Cc1cccc(CCNC(=O)c2ccc3c(c2)nc2n3CCCCC2)c1,inconclusive: -0.0664% [signal inhibitor],
Cc1nc2c(-c3ccc(F)cc3)c(C)nn2c(C)c1CCC(=O)N1CCN(c2ccc(F)cc2)CC1,inconclusive: 0.646% [signal inhibitor],
N#Cc1cc2c(=O)n3ccccc3nc2n(CCCN2CCOCC2)c1=O,inactive,
COc1ccccc1N1CCN(C(=O)Cn2cnc3sc(C)c(S(=O)(=O)N4CCC(C)CC4)c3c2=O)CC1,inconclusive: -0.535% [signal inhibitor],
CCc1cccc(C)c1NC(=O)Cn1c(=O)n(-c2cccc(C)c2)c(=O)c2c1c1cc(C)ccc1n2C,inactive,
COc1ccc(Cl)cc1N(C)C(=O)Cc1noc2ccc(C)cc12,inconclusive: 2.07% [signal inhibitor],
Cc1cccc(Cc2c(C)nc3nc(SCC(=O)NCc4ccc(F)cc4)nn3c2C)c1,inconclusive: 9.75% [signal inhibitor],
Nc1nc(C2CCCN2S(=O)(=O)c2ccc(Cl)cc2)cs1 (stereo not given),inactive,
CC(C)(C)OC(=O)N1CCC(c2c(C(=O)NCc3ccccn3)cnn2-c2ccc(F)cc2)CC1,inactive,
Cc1cc(C)c2c(=O)cc(C(=O)Nc3ccc(S(=O)(=O)Nc4onc(C)c4C)cc3)oc2c1,inconclusive: 2.88% [signal inhibitor],
O=C(c1ccc(CS(=O)(=O)c2ccc(Br)cc2)o1)N1CCN(c2ccccn2)CC1,inconclusive: 2.2% [signal inhibitor],
Cc1nn(-c2ccccc2)c2sc(C(=O)N3CCc4ccccc4C3)cc12,inconclusive: 1.2% [signal inhibitor],
Cc1ccc(-n2c(C)cc(C(=O)COC(=O)c3c(C)noc3C)c2C)cc1,inconclusive: 5.6% [signal inhibitor],
CCN1C(=O)c2ccccc2Sc2ccc(NC(=O)Cc3ccc(OC)cc3)cc21,inconclusive: -0.327% [signal inhibitor],
CCOc1ccc(NCc2cccn2-c2nnc(N3CCC(C(=O)NCc4cccc(OC)c4)CC3)s2)cc1,inconclusive: -2.48% [signal inhibitor],
COc1ccc(-n2nnc(C(=O)Nc3ccccc3F)c2N)cc1,inconclusive: 15.1% [signal inhibitor],
